In the supplement of paper PMC10126150:
Values marked as one replicate rest on one cluster of the flow cell; about a third of the high ones do not repeat.

Test system: ATP
Assay: switch fluorescence ratio, 500 uM ATP over buffer (Cy3 cluster intensity, sum of 5 cycles each) (fold (ratio)); higher = stronger signal-on switching upon ATP binding; sequences stand for … in TCGTCGGCAGCGTCAGATGTGTATAAGAGACAGTTTTTTTTTTTTTTTTTTTTTTTTT…TC
Settings: aptamer strand: ATP DNA aptamer (quencher-CACCTGGGGGAGTATTGCGGAGGAAGG + anchor), 100 nM annealed; ATP concentration: 500 uM; one replicate
How it was run: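 Values give the fluorescence ratio for each switch-domain sequence, averaged from per-cluster ratios of summed target-cycle to summed buffer-cycle Cy3 intensity. The Cy3-labelled switching-strand clusters sat on a modified Illumina MiSeq flow-cell, were annealed to 100 nM quencher-labelled ATP aptamer, and were imaged in selection buffer, then after 15 min with 500 uM ATP at 22 °C. Five cycles ran with NaOH stripping and re-annealing between them, and clusters outside 100-1000 RFU were excluded.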
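Note: ATP exposure 15 min at 22 °C before imaging.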

TTTGCCATCG gave a switch fluorescence ratio of 1.
For ATACAGTCGT, the switch fluorescence ratio was 1.02.
For ACTGAGTAC, the switch fluorescence ratio was 1.02.
TTAGACCTGT showed a switch fluorescence ratio of 1.01.
TCCTCGACCC showed a switch fluorescence ratio of 1.29.
Work on ACAGGGGTTC yielded a switch fluorescence ratio of 1.02.
In the case of ATAGCTACAG, the switch fluorescence ratio is reported as 1.03.
For TCGGTACACG, the switch fluorescence ratio was 0.999.
CCTCATGGGT gave a switch fluorescence ratio of 1.06.
With ACTGTTTTAA the switch fluorescence ratio was 1.01.
For TACTTTTTTG, the switch fluorescence ratio was 1.01.
Work on TGCATCTGT yielded a switch fluorescence ratio of 1.01.
Sequence GCGTTAAGGC has a switch fluorescence ratio of 1.07.
For GATTAACGTC, the switch fluorescence ratio was 1.05.
AGGCTCTGTG was tested, and the switch fluorescence ratio was 0.953.
In the case of TACGACCCGC, the switch fluorescence ratio is reported as 1.33.
Sequence TTATAAGTA has a switch fluorescence ratio of 0.988.
Work on ACTCAAAGTG yielded a switch fluorescence ratio of 1.41.
With CAGGGATTGT the switch fluorescence ratio was 0.992.
Work on TTGAAAAGAC yielded a switch fluorescence ratio of 1.02.
Work on CCAAGTCAGG yielded a switch fluorescence ratio of 1.05.
CGTCTGCGGT showed a switch fluorescence ratio of 0.979.
In the case of GTGGAGGCTG, the switch fluorescence ratio is reported as 1.
GCGGAAACGT showed a switch fluorescence ratio of 1.09.
CTAGCCGTAT gave a switch fluorescence ratio of 0.883.
Sequence TTTCTGTCGT has a switch fluorescence ratio of 0.987.
With GTCTGTACCG the switch fluorescence ratio was 0.971.
AACAATAGAT gave a switch fluorescence ratio of 1.07.
Sequence ATCTCCCTCA has a switch fluorescence ratio of 1.1.
In the case of TTGATGAATG, the switch fluorescence ratio is reported as 1.
Sequence TTATTACAAC has a switch fluorescence ratio of 0.99.
TACTGAGGAC showed a switch fluorescence ratio of 0.97.
TTCGGCTTAC showed a switch fluorescence ratio of 1.79.
GCATGTCCGG showed a switch fluorescence ratio of 0.999.
CTTTAGAAGT was tested, and the switch fluorescence ratio was 0.979.
For CAGTTCATCT, the switch fluorescence ratio was 1.01.
In the case of GCCCGTGGCG, the switch fluorescence ratio is reported as 0.977.
For ATAGCCGGTC, the switch fluorescence ratio was 1.1.
In the case of GCGTGCCGGG, the switch fluorescence ratio is reported as 1.01.
For GATCTGGACC, the switch fluorescence ratio was 1.03.
With GTAAATACGT the switch fluorescence ratio was 1.03.
CTGCTACTTT showed a switch fluorescence ratio of 1.05.
In the case of GCTTGGCAAG, the switch fluorescence ratio is reported as 0.99.
GGAGAGGCTT gave a switch fluorescence ratio of 0.963.
CAAGGAATAT was tested, and the switch fluorescence ratio was 1.01.
Sequence AGGAGAAGCA has a switch fluorescence ratio of 0.958.
AGAATATGCT showed a switch fluorescence ratio of 0.997.
Work on ATCATGTTTG yielded a switch fluorescence ratio of 0.98.
Sequence ACGCTTGCCC has a switch fluorescence ratio of 1.01.
TTATGATCGT was tested, and the switch fluorescence ratio was 1.
With GGGCAGCTAC the switch fluorescence ratio was 1.71.
With GTATGGGAAC the switch fluorescence ratio was 1.
Work on GCGGTATACA yielded a switch fluorescence ratio of 1.03.
Work on CCAAATTTAT yielded a switch fluorescence ratio of 0.983.
ATCTCGCACC was tested, and the switch fluorescence ratio was 1.34.
For CAAAGGCCAT, the switch fluorescence ratio was 1.02.
CCACATAACA gave a switch fluorescence ratio of 1.11.
With AGGATAGT the switch fluorescence ratio was 1.03.
For CCGCCGGTCT, the switch fluorescence ratio was 1.29.
CTCGTCTGAT showed a switch fluorescence ratio of 1.04.
TAGCACAATG gave a switch fluorescence ratio of 0.98.
CCTGGCTGTT gave a switch fluorescence ratio of 1.13.
ACACTTGTAC showed a switch fluorescence ratio of 1.2.
In the case of TTATCTAGAT, the switch fluorescence ratio is reported as 0.941.
With TTGGTACACG the switch fluorescence ratio was 1.02.
Sequence GCTTGAATTG has a switch fluorescence ratio of 0.993.
For TCCCGCCACG, the switch fluorescence ratio was 1.09.
In the case of TACTGAGAA, the switch fluorescence ratio is reported as 0.997.
Work on GCCGTTCGTG yielded a switch fluorescence ratio of 1.03.
For GGGGGATACC, the switch fluorescence ratio was 1.41.
With ACATGCAAAG the switch fluorescence ratio was 1.03.
GCACAAGATT showed a switch fluorescence ratio of 0.988.
GACACGCCAT showed a switch fluorescence ratio of 1.27.
In the case of CCATTGTGAG, the switch fluorescence ratio is reported as 1.01.
With TTATGTATAA the switch fluorescence ratio was 0.986.
Sequence TAGAATCACA has a switch fluorescence ratio of 0.99.
Sequence GCTGATAATT has a switch fluorescence ratio of 0.942.
Work on CTTGTGTAT yielded a switch fluorescence ratio of 1.
In the case of ACGCCAAATA, the switch fluorescence ratio is reported as 1.31.
In the case of ATGTCTCAT, the switch fluorescence ratio is reported as 0.983.
CTAACAGCAG showed a switch fluorescence ratio of 1.12.
AGAATACCGG was tested, and the switch fluorescence ratio was 0.969.
TGGGCCCTAA showed a switch fluorescence ratio of 1.01.
Work on CGGGAACATG yielded a switch fluorescence ratio of 0.989.
TGAAGAGTTC showed a switch fluorescence ratio of 1.07.
GGTAATACGA gave a switch fluorescence ratio of 1.88.
Sequence AATTTTACT has a switch fluorescence ratio of 1.01.
With GCTGGCTGTG the switch fluorescence ratio was 1.
GAGACGGGGC showed a switch fluorescence ratio of 1.11.
CAAAGAAAGT gave a switch fluorescence ratio of 1.
TACGATAGGA gave a switch fluorescence ratio of 1.08.
CCGCCGGTAT was tested, and the switch fluorescence ratio was 1.55.
For ACGATTCGTG, the switch fluorescence ratio was 0.98.
Sequence GATCACGGTG has a switch fluorescence ratio of 1.02.
TATGTGAGCG was tested, and the switch fluorescence ratio was 0.99.
Work on ACTTGCGGTC yielded a switch fluorescence ratio of 1.01.
Sequence ATTTGCTCTT has a switch fluorescence ratio of 0.947.
AACTCGTATG showed a switch fluorescence ratio of 1.05.
For CGCCTGTTTG, the switch fluorescence ratio was 0.989.
TGGACGTTTG showed a switch fluorescence ratio of 1.01.
With TGTTGGCTGT the switch fluorescence ratio was 1.01.
With GATGCCGGGC the switch fluorescence ratio was 0.969.
In the case of CTATGCACCC, the switch fluorescence ratio is reported as 1.21.
Sequence CATAGGTGAA has a switch fluorescence ratio of 0.962.
For TTATTCCGGG, the switch fluorescence ratio was 1.05.
Work on GTTCCCACGG yielded a switch fluorescence ratio of 1.13.
Sequence TGTTGCTTTG has a switch fluorescence ratio of 1.02.
Sequence CTAGCGGATT has a switch fluorescence ratio of 1.
In the case of AGTCACTGTT, the switch fluorescence ratio is reported as 0.997.
CGTACGACGA was tested, and the switch fluorescence ratio was 1.
In the case of AGCCTGCGGA, the switch fluorescence ratio is reported as 0.984.
Work on AGCACATCAC yielded a switch fluorescence ratio of 1.81.
For AGAAACCTGG, the switch fluorescence ratio was 1.31.
In the case of TGGCTCCGG, the switch fluorescence ratio is reported as 1.03.
Work on GGACAACATT yielded a switch fluorescence ratio of 0.988.
ATTAAAGATC showed a switch fluorescence ratio of 1.02.
In the case of TCAGTCTTAC, the switch fluorescence ratio is reported as 0.99.
TTAACTAGTT showed a switch fluorescence ratio of 1.
CACTAACTTG gave a switch fluorescence ratio of 1.04.
TACGAGTCG showed a switch fluorescence ratio of 0.978.
GAATGTTGGA gave a switch fluorescence ratio of 0.938.
Work on CAAGCTCGGC yielded a switch fluorescence ratio of 1.08.
Work on CGGCGAGCCC yielded a switch fluorescence ratio of 1.05.
With ACCTAGTTCA the switch fluorescence ratio was 1.02.
Sequence CCCGATATCA has a switch fluorescence ratio of 0.971.
In the case of TACGACTTTT, the switch fluorescence ratio is reported as 0.959.
CTTTTACGGT showed a switch fluorescence ratio of 1.01.
Sequence GGAAAGCATT has a switch fluorescence ratio of 0.979.
With CAGGCGCATC the switch fluorescence ratio was 2.38.
CAGGTCATTG showed a switch fluorescence ratio of 1.04.
TAAACGTGAA showed a switch fluorescence ratio of 1.07.
With ACAGAAATTA the switch fluorescence ratio was 0.99.
For GCCGGCCCTT, the switch fluorescence ratio was 0.974.
TTTTGCAGTA was tested, and the switch fluorescence ratio was 0.995.
AAATCGTCTC showed a switch fluorescence ratio of 1.
TTATAGGAGT showed a switch fluorescence ratio of 0.998.
In the case of ATTTTAGGAT, the switch fluorescence ratio is reported as 0.984.
With TATCATGATG the switch fluorescence ratio was 0.987.
CGCATAGTTT showed a switch fluorescence ratio of 1.08.
TACCGGGGCA gave a switch fluorescence ratio of 0.987.
CGCGAACGGC gave a switch fluorescence ratio of 1.09.
TAGTACAGTG was tested, and the switch fluorescence ratio was 1.01.
Work on TAACTGGTGC yielded a switch fluorescence ratio of 1.23.
Work on CGTAGGACGA yielded a switch fluorescence ratio of 0.996.
CAAGCTCAAG gave a switch fluorescence ratio of 0.99.
Sequence TATGACTGGT has a switch fluorescence ratio of 1.
For GCAACACCAG, the switch fluorescence ratio was 1.25.
Work on ATGAAGACTC yielded a switch fluorescence ratio of 1.02.
In the case of CGCGATTATA, the switch fluorescence ratio is reported as 1.02.
For CATAGCGAAA, the switch fluorescence ratio was 1.06.
Sequence TATTATGACG has a switch fluorescence ratio of 0.994.
TAGAAGCACG was tested, and the switch fluorescence ratio was 1.06.
Sequence TTTGGCTAT has a switch fluorescence ratio of 0.988.
For CTTTTAGGCC, the switch fluorescence ratio was 0.956.
With ATGGGGGA the switch fluorescence ratio was 1.03.
AGATATGAGT was tested, and the switch fluorescence ratio was 0.947.
GCAGGGAGCT gave a switch fluorescence ratio of 0.983.
